This test deals with classical monocytes in PBMCs from healthy donors. The text has this:
Next, we determined whether there is a causal relationship between the observed reduction in H3K27ac histone acetylation and PADI4 levels, and the diminished cytokine production. […] Next, we asked whether inhibition of CBP/P300 and PADI4 has an impact on cytokine production.
Indeed, previous studies described a direct physical interaction and functional co-dependence between AP-1 and the histone acetyl transferases CBP/P300. To investigate whether AP-1 activity and histone acetylation are also functionally linked in classical monocytes, we conducted an ex-vivo stimulation experiment using the same specific inhibitors of histone acetylation and PADI activity as in FIG. 2. To gauge AP-1 activity, we used an intracellular antibody staining able to detect the activated, phosphorylated form of c-Jun.
In-vitro stimulation and intracellular flow cytometry experiments. Cryopreserved PBMCs were thawed, counted, and resuspended in RPMI 1640 (Corning, 10-040-CV) supplemented with 10% FBS (Corning, 35-011-CV) [complete media] at a concentration of 4×10^6 cells/mL. Next, 150 μL of cell suspension (6×10^5 cells) was added to each well of a 96-well round-bottomed tissue culture plate and mixed with 50 μL of inhibitor solution containing either Trichostatin A (TSA; CST, 9950S), A-485 (Tocris, 6387), or CI-Amidine (EMD Millipore, 506282) in complete media. After 2 h of incubation at 37 C and 5% CO2, the cells were stimulated by adding either LPS (0.025 μg/mL; Invivogen, tlrl-pb5lps) or R848 (4 μg/mL; Enzo Life Sciences, ALX-420-038-M005) to the cultures. After another 2 h of incubation, Brefeldin A (10 μg/mL; Sigma Aldrich, B7651-5MG) was added to all cultures and cells were incubated for a final 4 h. After a total of 8 h of incubation, cells were washed twice with 150 μL PBS (GE Life Sciences, SH30256.LS) and stained for viability using 100 μL of Zombie UV Fixable Viability Dye in PBS (1:1000; Biolegend, 423108). […] Data was analyzed using Flowjo X software (BD). […]

These results are taken from US20240082393A1 (priority 2021, published 2024).

Take trichostatin A [TSA]: the “global histone H3K27ac levels in classical monocytes” value is reported as “concentration-dependent increase”.

With CI-Amidine, the “c-Jun activation (phospho-c-Jun)” value is recorded as “abolished c-Jun activation completely”; the “frequency of IL-1b and TNFα positive monocytes / cytokine production” value was “complete abrogation”.
